# Data as given in the supplement of paper PMC7125110.
# ± gives the standard error. Variants at the background level are over-represented here.
# B1: glmS ribozyme (parent)
# chain: AUAAAAGCGCCAGAACUACAGAAAUGUAGUUGACGAGGAGGAGGUUUAUCGAAUUUUCGGCGGAUGCCUCCAAA
# Variants of: B1
# Experiment: self-cleavage kobs at 2500 uM GlcN6P; higher = faster cleavage; RNA array
# Settings: with glucosamine-6-phosphate
# Summary of the method: (§1)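 Using a hybridised Cy3 probe at 37 °C, barcoded ribozyme variants transcribed in situ by E. coli RNA polymerase on sequenced MiSeq chips were monitored across tiles imaged over ~14 h. The flow contained glucosamine-6-phosphate from 40 μM to 10 mM in HEPES/KCl/Mg(OAc)2 buffer. Signals were normalised to baseline and to non-cleaving reference variants before per-tile medians were fit to one- or two-exponential decays to yield kobs. Weighted Michaelis–Menten fits across concentrations gave kcat and KM.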
row,Variant,self-cleavage kobs at 2500 uM GlcN6P [s⁻¹]
1,G29U G32C U65C,< 1e-05
2,C11G G41U A48C C70G,< 1e-05
3,C11U A14G C61A U69G,< 1e-05
4,G38U A42U G44U G51U,< 1e-05
5,A14C U47A U57G G60U,< 1e-05
6,A33U A42C U49A,< 1e-05
7,G37C G60A C68U,< 1e-05
8,A39G G41C C50U,< 1e-05
9,G29C G32U C67A,4.32e-05 ± 2e-05
10,A15U U30C G44C G51C,< 1e-05
11,G29A G35C C58U,< 1e-05
12,A12C A14C G43A A64U,< 1e-05
13,G35U A36C G37C A53U C67U,< 1e-05
14,A39U U49A U56G,< 1e-05
15,C11G U56A G62A,< 1e-05
16,A15U A36G A39U,< 1e-05
17,A15C G37A A39G G43A U46C,< 1e-05
18,C34U C58A C68U C70U,< 1e-05
19,G35C G38C A39C U49A,< 1e-05
20,A12G G37A G41U G43A,< 1e-05
21,C34A G40C U46C U47A G59C,< 1e-05
22,G40U G51U U69C C71U,< 1e-05
23,A36U U46C A53C,< 1e-05
24,A14G A33U G44A U65A,< 1e-05
25,U31C A48U U54A U65A,< 1e-05
26,C11G A48C C58G,< 1e-05
27,A36U G40C A52U,< 1e-05

row,Variant,self-cleavage kobs at 2500 uM GlcN6P [s⁻¹]
1,G37C G44A U54A,< 1e-05
2,C11U U31G G60U,< 1e-05
3,A39C G41U A53C,< 1e-05
4,C34A C50U C71G,< 1e-05
5,A12U U47G U65G,0.00179 ± 0.0004
6,G35U A42U A64U,< 1e-05
7,G29C A33U G41A,< 1e-05
8,G29A A39C G59A,< 1e-05
9,G38C U47C C67U,< 1e-05
10,A36G A48U C67G,< 1e-05
11,G41C A64U,< 1e-05
12,A12G A15U C61G,< 1e-05
13,G29A C50G U55A,0.000211 ± 8.8e-05
14,G37A G44C G60A U65G,< 1e-05
15,G29C A48U G60C,< 1e-05
16,G13U U46A U56C C70G C71U,< 1e-05
17,A15U C16A U45C C70A,< 1e-05
18,C11G G38U C71A,< 1e-05
19,C34A G37U A64G,< 1e-05
20,G13C G29C U55A,8.97e-05 ± 2.5e-05
21,A15C G37U A39G,< 1e-05
22,A12U G29C G32A A42U G62C,< 1e-05
23,G32U A36G G51C C61G U65A,< 1e-05
24,G40A G43U C61G,< 1e-05
25,G13A G37C U54A,< 1e-05
26,A33G G51C C71U,< 1e-05
27,G40U U49G,9.77e-05 ± 2e-05

row,Variant,self-cleavage kobs at 2500 uM GlcN6P [s⁻¹]
1,A15C A39G U47G A53U,0.000235 ± 8.5e-05
2,G13A G32C A33U G44A A48C,< 1e-05
3,A14G G51C G62C U65A C68G C70A,< 1e-05
4,U31C A33U C67G U69A,< 1e-05
5,A36C G40C A48U U69G,< 1e-05
6,C11G G29A G35A U69A,< 1e-05
7,A15U G35U C58U,< 1e-05
8,G35U G37U G43U G44A,< 1e-05
9,A33C C58U C71G,< 1e-05
10,C11G A48U G59U,< 1e-05
11,A36C G40U U47G C67A,< 1e-05
12,G37U A39G C68G,< 1e-05
13,U30C U45G A64U,< 1e-05
14,G32C C34A A39C A42G U57C,< 1e-05
15,U31C A53C U55C,0.000164 ± 5e-05
16,C16G G29C A53U,0.00684 ± 0.0022
17,C16A G43A G60A C70G,< 1e-05
18,G29U C34U U55G C67U,< 1e-05
19,U30C G32U G43U,< 1e-05
20,G40C U45G A64U,< 1e-05
21,U30A G35A G66A,< 1e-05
22,G37U G38C U55C,< 1e-05
23,C34U G43U U56G U57A,< 1e-05
24,G38A A52U C71G,< 1e-05
25,C16U U46C C61G,< 1e-05

# Variants of: B1
# Experiment: self-cleavage kobs at 10000 uM GlcN6P; higher = faster cleavage; RNA array
# Settings: with glucosamine-6-phosphate
# Summary of the method: as §1
row,Variant,self-cleavage kobs at 10000 uM GlcN6P [s⁻¹]
1,G37C G60A C68U,< 1e-05
2,G29C G32U C67A,0.00017 ± 2.6e-05
3,A39U U49A U56G,< 1e-05
4,A15U A36G A39U,< 1e-05
5,G29C A33U G41A,< 1e-05
6,G41C A64U,< 1e-05
7,G40U U49G,6.94e-05 ± 1.1e-05
8,G13A G32C A33U G44A A48C,< 1e-05
